Our source for the cytotoxicity call and growth inhibition call values is the antibiotic and cytotoxicity screens of Wong et al. (2023).

This is one part of the list.

One experiment has as its system HSkMC. Put plainly: cytotoxicity call (relative viability < 0.9). The note with it: 10 µM.
The test system of a further experiment is HepG2. Description: cytotoxicity call (relative viability < 0.9). As to conditions: 10 µM.
A further experiment has as its system S. aureus RN4220. Description: growth inhibition call (relative growth <= 0.2). As to conditions: 50 µM.

With `COc1c2c(cc3c1OCO3)CC[N+](C)=C2.[Cl-]`, the cytotoxicity call in the experiment on HSkMC and in the experiment with HepG2 was “inactive” in each case. In addition, the growth inhibition call in the experiment on S. aureus RN4220 was “inactive”.
For the compound `Cc1ccc2nc(CCN)[nH]c2c1`, the cytotoxicity call in the experiment with HSkMC and in the experiment with HepG2 was “inactive” each time. In addition, the growth inhibition call in the experiment on S. aureus RN4220 was “inactive”.
For the compound `CC12CC(=O)C3C(CCC4=CC(=O)CCC43C)C1CCC2=O` (stereo not drawn), the cytotoxicity call with HSkMC and with HepG2 was “inactive” throughout. Moreover, the growth inhibition call in the experiment on S. aureus RN4220 is “inactive”.
On to `C[C@@H]1CN([C@@H](C)CO)C(=O)CCCn2nncc2CO[C@H]1CN(C)C(=O)Oc1cccc2ccccc12`, for which the cytotoxicity call with HSkMC and in the experiment on HepG2 was “inactive” throughout. Besides, the growth inhibition call with S. aureus RN4220 was “inactive”.
In the case of `CC(=O)OCC1=C(C(=O)[O-])N2C(=O)C(NC(=O)CCCC(N)C(=O)[O-])C2SC1.[Zn+2]` (stereo not drawn), the cytotoxicity call in the experiment with HSkMC and in the experiment on HepG2 was “inactive” each time. The growth inhibition call with S. aureus RN4220 was “inactive”.
Take `CC(=O)OC(C)(C)/C=C/C(=O)C(C)(O)[C@H]1[C@H](O)C[C@@]2(C)[C@H]3CC=C4[C@@H](C[C@H](O)C(=O)C4(C)C)[C@]3(C)C(=O)C[C@]12C` (stereo partly drawn): the cytotoxicity call in the experiment on HSkMC was “inactive”. For the same compound, the cytotoxicity call in the experiment with HepG2 was “active”. For the same compound, the growth inhibition call in the experiment on S. aureus RN4220 was “inactive”.
As for `COc1cc2c(cc1O)CCNC2C` (stereo not drawn), the cytotoxicity call in the experiment on HSkMC and with HepG2 was “inactive” throughout. The growth inhibition call with S. aureus RN4220 was “inactive”.
With `Nc1ccccc1-c1ccccc1`, the cytotoxicity call in the experiment with HSkMC and in the experiment with HepG2 was “inactive” each time. Further, the growth inhibition call in the experiment on S. aureus RN4220 is “inactive”.
`N[C@H]1Cc2ccccc2[C@@H]1O`: the cytotoxicity call with HSkMC and with HepG2 was “inactive” throughout. Also, the growth inhibition call in the experiment with S. aureus RN4220 was “inactive”.
With `CN(C)C(=O)Oc1cc(OC(=O)N(C)C)cc(C(O)CNC(C)(C)C)c1.Cl` (stereo not drawn), the cytotoxicity call in the experiment on HSkMC and in the experiment with HepG2 was “inactive” in each case. Also, the growth inhibition call in the experiment with S. aureus RN4220 was “inactive”.
Turning to `NC[C@H](CC(=O)O)c1ccc(Cl)cc1`, the cytotoxicity call in the experiment with HSkMC and with HepG2 was “inactive” throughout. Besides, the growth inhibition call in the experiment with S. aureus RN4220 was “inactive”.
With `CCC1(CC)C(=O)NC(=O)NC1=O`, the cytotoxicity call in the experiment with HSkMC and with HepG2 was “inactive” throughout. For the same compound, the growth inhibition call in the experiment on S. aureus RN4220 was “inactive”.
`CCn1cc2nc(N3CCNCC3)[nH]cc-2c1=O`: the cytotoxicity call with HSkMC and in the experiment with HepG2 was “inactive” in each case. Moreover, the growth inhibition call in the experiment with S. aureus RN4220 was “inactive”.
Take `NCCc1cccc(O)c1`: the cytotoxicity call in the experiment on HSkMC and in the experiment on HepG2 was “inactive” throughout. Besides, the growth inhibition call with S. aureus RN4220 is “inactive”.
With `CC(=O)[O][Cd][O]C(C)=O`, the cytotoxicity call with HSkMC and in the experiment on HepG2 was “inactive” each time. In the experiment with S. aureus RN4220, the growth inhibition call is “active”.
Consider `CNCC(=O)c1ccc(O)c(O)c1.Cl`, for which the cytotoxicity call in the experiment with HSkMC and in the experiment with HepG2 was “inactive” each time. In addition, in the experiment with S. aureus RN4220, the growth inhibition call was “inactive”.
For the compound `CC(C)Oc1ncccc1CN`, the cytotoxicity call with HSkMC and in the experiment on HepG2 was “inactive” each time. In addition, the growth inhibition call with S. aureus RN4220 was “inactive”.
`Cc1ccnc(N2CCNCC2)c1`: the cytotoxicity call with HSkMC and in the experiment with HepG2 was “inactive” throughout. Moreover, the growth inhibition call in the experiment with S. aureus RN4220 was “inactive”.
`O=c1[nH]c2ccccc2n1C1CCN(Cc2ccc(-c3nc4cc5[nH]cnc5cc4nc3-c3ccccc3)cc2)CC1`: the cytotoxicity call with HSkMC and in the experiment with HepG2 was “active” throughout. Besides, the growth inhibition call with S. aureus RN4220 is “inactive”.
As for `CCCCCC1C(=O)OC(C)C(NC(=O)c2cccc(NC=O)c2O)C(=O)OC(C)C1OC(=O)CC(C)C` (stereo not drawn) [ANTIMYCIN A (A1 shown) ], the cytotoxicity call in the experiment with HSkMC is “inactive”. Moreover, the cytotoxicity call in the experiment on HepG2 was “active”.
Turning to `CCCCC[C@H]1C(=O)O[C@H](C)[C@H](NC(=O)c2cccc(NC=O)c2O)C(=O)O[C@@H](C)[C@@H]1OC(=O)CC(C)C`, the cytotoxicity call in the experiment on HSkMC was “inactive”. Moreover, in the experiment with HepG2, the cytotoxicity call is “active”. The growth inhibition call with S. aureus RN4220 is “inactive”.
As to `CC1(C)C(C=C(Cl)Cl)C1C(=O)OC(C#N)c1cccc(Oc2ccccc2)c1` (stereo not drawn), the cytotoxicity call with HSkMC and with HepG2 was “inactive” throughout. For the same compound, in the experiment with S. aureus RN4220, the growth inhibition call is “inactive”.
For `CC12C(=O)OC(=O)C1(C)C1CCC2O1` (stereo not drawn), in the experiment with HSkMC, the cytotoxicity call was “inactive”. Moreover, the cytotoxicity call in the experiment with HepG2 is “active”. Moreover, the growth inhibition call with S. aureus RN4220 was “inactive”.
On to `CCC(C)C(=O)OC1CC2(C)C(c3ccoc3)OC(=O)CC23OC2(C)OC34C(OC(C)=O)C3(O)C(OC(=O)C5(C)OC5C)C5(C)CC3(O)C(C)(C5CC(=O)OC)C14O2` (stereo not drawn), for which the cytotoxicity call with HSkMC and in the experiment on HepG2 was “inactive” throughout. For the same compound, the growth inhibition call with S. aureus RN4220 was “inactive”.
For the compound `CC1(C)C(=O)C2OC2C2(C)C1CC(O)C1(C)C2CCC2(C)C(c3ccoc3)OC(=O)C3OC321` (stereo not drawn) [1,2alpha-EPOXYDEACETOXYDIHYDROGEDUNIN ], the cytotoxicity call in the experiment on HSkMC and in the experiment on HepG2 was “inactive” in each case.
For `NC1=NC(=O)C2(CCNCC2)N1`, the cytotoxicity call in the experiment on HSkMC and in the experiment with HepG2 was “inactive” each time. Besides, the growth inhibition call in the experiment on S. aureus RN4220 was “inactive”.
On to `COc1ccc(Cc2nccc3cc(OC)c(OC)cc23)cc1OC.Cl`, for which the cytotoxicity call in the experiment with HSkMC is “inactive”. For the same compound, the cytotoxicity call in the experiment with HepG2 was “active”. Further, the growth inhibition call with S. aureus RN4220 is “inactive”.
`OCC1CCCN2CCCCC12` (stereo not drawn): the cytotoxicity call in the experiment on HSkMC and in the experiment on HepG2 was “inactive” each time. Moreover, the growth inhibition call in the experiment on S. aureus RN4220 is “inactive”.
In the case of `Cl.Oc1noc2c1CCNC2`, the cytotoxicity call in the experiment on HSkMC and with HepG2 was “inactive” throughout. In addition, the growth inhibition call in the experiment with S. aureus RN4220 is “inactive”.
Take `CCC1CN2CCC1CC2C(O)c1ccnc2ccc(OC)cc12` (stereo not drawn): the cytotoxicity call with HSkMC was “inactive”. Besides, the cytotoxicity call in the experiment on HepG2 was “active”. Also, the growth inhibition call with S. aureus RN4220 is “inactive”.
Consider `CN1CCN(C(=O)CN=[N+]=[N-])CC1`, for which the cytotoxicity call in the experiment on HSkMC and in the experiment with HepG2 was “inactive” each time. In addition, the growth inhibition call in the experiment on S. aureus RN4220 is “inactive”.
Take `COc1cccc2c1C(=O)c1c(O)c3c(c(O)c1C2=O)C[C@@](O)(C(=O)CO)C[C@@H]3O[C@H]1C[C@H](N2CCO[C@H](OC)C2)[C@H](O)[C@H](C)O1`: the cytotoxicity call with HSkMC and in the experiment with HepG2 was “active” each time. Also, the growth inhibition call in the experiment on S. aureus RN4220 was “active”.
For the compound `CCC(C)C1OC2(C=CC1C)CC1CC(CC=C(C)C(OC3CC(OC)C(OC4CC(OC)C(O)C(C)O4)C(C)O3)C(C)C=CC=C3COC4C(O)C(C)=CC(C(=O)O1)C34O)O2` (stereo not drawn) [ABAMECTIN (avermectin B1a shown) ], the cytotoxicity call in the experiment on HSkMC is “inactive”. Also, the cytotoxicity call with HepG2 was “active”.
Regarding `CCCCS(=O)(=O)N1C[C@H]2CNC[C@@H]2C1`, the cytotoxicity call in the experiment with HSkMC and in the experiment with HepG2 was “inactive” each time. The growth inhibition call in the experiment with S. aureus RN4220 was “inactive”.
As to `C[C@H](N)Cc1cnc[nH]1`, the cytotoxicity call in the experiment on HSkMC and in the experiment on HepG2 was “inactive” each time. The growth inhibition call in the experiment on S. aureus RN4220 was “inactive”.
Consider `CNC(=O)Oc1ccccc1OC(C)C`, for which the cytotoxicity call with HSkMC and with HepG2 was “inactive” throughout. Also, the growth inhibition call in the experiment on S. aureus RN4220 is “inactive”.
On to `CN(C)C(=O)[C@@]1(Cc2ccccc2N=[N+]=[N-])N=C(c2ccc(OCCCO)cc2)O[C@H]1c1ccccc1N=[N+]=[N-]`, for which the cytotoxicity call in the experiment on HSkMC (human skeletal muscle cells) and in the experiment on HepG2 was “inactive” in each case. For the same compound, the growth inhibition call in the experiment on S. aureus RN4220 is “inactive”.
